# The supplement of paper PMC10037445
# ± gives the standard deviation of the averaged measurements. Over roughly 2,900 compounds, “IRF Lucia reporter activity, fold change vs agonist alone” has its median near 0.9; the highest 2% begin near 2.8. Some of the results follow.
# What was measured:
# RAW-Dual [1] = assay: IRF Lucia reporter activity, fold change vs agonist alone; cytotoxicity flag (confluency mask): not cytotoxic; higher = enhanced IRF activity
# Summary of the method: (§1)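 RAW-Dual macrophages were seeded in DMEM at 50,000 cells/well in 384-well plates, given 50 nL of library stock by pin tool, and given a PRR agonist 1 h later. Plates were held at 37 °C, 5% CO2 for 20 hours, after which supernatant was read for IRF by QuantiLuc luminescence and for NF-κB by QuantiBlue absorbance at 620 nm. Reporter activity is expressed as fold change over wells that received agonist alone. A well was called cytotoxic when IncuCyte confluency fell below 70% of agonist controls in both mask sets.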
# RAW-Dual [2] = assay: IRF Lucia reporter activity, fold change vs agonist alone; higher = enhanced IRF activity; conditions: agonist: MPLA (TLR4) […]
# Summary of the method: as §1
# RAW-Dual [3] = assay: IRF Lucia reporter activity, fold change vs agonist alone; cytotoxicity flag (confluency mask): cytotoxic (confluency <70% of control); higher = enhanced IRF activity
# Summary of the method: as §1
# [4] = agonist: 3'3'-cGAMP (STING) 10 ug/mL
# [5] = library stock concentration (final ~1000-fold dilution): 10 mM, cytotoxicity flag (confluency mask): not cytotoxic
# [6] = library stock concentration (final ~1000-fold dilution): 10 mM, cytotoxicity flag (confluency mask): cytotoxic (confluency <70% of control)
structure (smiles),measurement,setting,value
CCNC(=O)Nc1ccc(-c2nc3c(c(N4CCOCC4C)n2)CCN(C2COC2)C3)cc1 (configuration not stated) (library stock concentration (final ~1000-fold dilution): 10 mM),IRF Lucia reporter activity,RAW-Dual [1]; [4],0.803
same,IRF Lucia reporter activity,RAW-Dual [1]; agonist: LPS (TLR4) 0.1 ug/mL,0.984
CCCS(=O)c1ccc2nc(NC(=O)OC)[nH]c2c1 (configuration not stated),IRF Lucia reporter activity,RAW-Dual [2]; [5],0.743
CCCS(=O)c1ccc2nc(NC(=O)OC)[nH]c2c1 (configuration not stated) (library stock concentration (final ~1000-fold dilution): 10 mM),IRF Lucia reporter activity,RAW-Dual [1]; [4],1.11
same,IRF Lucia reporter activity,RAW-Dual [1]; agonist: LPS (TLR4) 0.1 ug/mL,0.968
COc1ccc(CC(N)C(=O)NC2C(CO)OC(n3cnc4c(N(C)C)ncnc43)C2O)cc1.Cl.Cl (configuration not stated) (library stock concentration (final ~1000-fold dilution): 10 mM),IRF Lucia reporter activity,RAW-Dual [1]; [4],0.173
same,IRF Lucia reporter activity,RAW-Dual [1]; agonist: LPS (TLR4) 0.1 ug/mL,2.15
COc1ccc(CC(N)C(=O)NC2C(CO)OC(n3cnc4c(N(C)C)ncnc43)C2O)cc1.Cl.Cl (configuration not stated),IRF Lucia reporter activity,RAW-Dual [2]; [5],2.54
COc1cc2nc(N3CCN(C(=O)C4COc5ccccc5O4)CC3)nc(N)c2cc1OC.CS(=O)(=O)O (configuration not stated) (library stock concentration (final ~1000-fold dilution): 10 mM),IRF Lucia reporter activity,RAW-Dual [1]; [4],0.214
same,IRF Lucia reporter activity,RAW-Dual [1]; agonist: LPS (TLR4) 0.1 ug/mL,1.07
COc1cc2nc(N3CCN(C(=O)C4COc5ccccc5O4)CC3)nc(N)c2cc1OC.CS(=O)(=O)O (configuration not stated),IRF Lucia reporter activity,RAW-Dual [2]; [5],1.66
COc1ccnc2[nH]cc(C(=O)C(=O)N3CCN(C(=O)c4ccccc4)CC3C)c12 (configuration not stated) (library stock concentration (final ~1000-fold dilution): 10 mM),IRF Lucia reporter activity,RAW-Dual [1]; [4],0.969
same,IRF Lucia reporter activity,RAW-Dual [1]; agonist: LPS (TLR4) 0.1 ug/mL,0.753
COc1ccnc2[nH]cc(C(=O)C(=O)N3CCN(C(=O)c4ccccc4)CC3C)c12 (configuration not stated),IRF Lucia reporter activity,RAW-Dual [2]; [5],0.872
c1cncc(-c2c[nH]nn2)c1 (library stock concentration (final ~1000-fold dilution): 10 mM),IRF Lucia reporter activity,RAW-Dual [1]; [4],0.768
same,IRF Lucia reporter activity,RAW-Dual [1]; agonist: LPS (TLR4) 0.1 ug/mL,0.853
CC=C1C(=O)CC2C3CCC4=CC(=O)CCC4(C)C3CCC12C (configuration not stated) (library stock concentration (final ~1000-fold dilution): 10 mM),IRF Lucia reporter activity,RAW-Dual [1]; [4],1.15
same,IRF Lucia reporter activity,RAW-Dual [1]; agonist: LPS (TLR4) 0.1 ug/mL,0.711
CC=C1C(=O)CC2C3CCC4=CC(=O)CCC4(C)C3CCC12C (configuration not stated),IRF Lucia reporter activity,RAW-Dual [2]; [5],0.993
CC(C)(C)S(=O)(=O)c1ccc2nccc(Nc3n[nH]c4ccc(F)cc34)c2c1 (library stock concentration (final ~1000-fold dilution): 10 mM),IRF Lucia reporter activity,RAW-Dual [1]; [4],0.259 ± 0.021
same,IRF Lucia reporter activity,RAW-Dual [1]; agonist: LPS (TLR4) 0.1 ug/mL,0.456 ± 0.079
CCC1OC(=O)C(C)C(OC2CC(C)(OC)C(O)C(C)O2)C(C)C(OC2OC(C)CC(N(C)C)C2O)C(C)(OC)CC(C)C(=O)C(C)C(O)C1(C)O (configuration not stated),IRF Lucia reporter activity,RAW-Dual [2]; [5],1.01
CCC1OC(=O)C(C)C(OC2CC(C)(OC)C(O)C(C)O2)C(C)C(OC2OC(C)CC(N(C)C)C2O)C(C)(OC)CC(C)C(=O)C(C)C(O)C1(C)O (configuration not stated) (library stock concentration (final ~1000-fold dilution): 10 mM),IRF Lucia reporter activity,RAW-Dual [1]; [4],0.478
same,IRF Lucia reporter activity,RAW-Dual [1]; agonist: LPS (TLR4) 0.1 ug/mL,1.19
Cc1cncc(CN2CCC(=C3c4ccc(Cl)cc4CCc4cccnc43)CC2)c1.O=C(O)/C=C/C(=O)O (library stock concentration (final ~1000-fold dilution): 10 mM),IRF Lucia reporter activity,RAW-Dual [3]; [4],0.36
same,IRF Lucia reporter activity,RAW-Dual [3]; agonist: LPS (TLR4) 0.1 ug/mL,0.712
Cc1cncc(CN2CCC(=C3c4ccc(Cl)cc4CCc4cccnc43)CC2)c1.O=C(O)/C=C/C(=O)O,IRF Lucia reporter activity,RAW-Dual [2]; [6],0.902
CC(C)c1cc2c(N3CCN(C4=NCC(C)(C)S4)CC3)ncnc2s1 (library stock concentration (final ~1000-fold dilution): 10 mM),IRF Lucia reporter activity,RAW-Dual [1]; [4],0.767
same,IRF Lucia reporter activity,RAW-Dual [1]; agonist: LPS (TLR4) 0.1 ug/mL,0.945
COc1cccc(CCc2ccccc2OCC(CN(C)C)OC(=O)CCC(=O)O)c1.Cl (configuration not stated) (library stock concentration (final ~1000-fold dilution): 10 mM),IRF Lucia reporter activity,RAW-Dual [1]; [4],0.755
same,IRF Lucia reporter activity,RAW-Dual [1]; agonist: LPS (TLR4) 0.1 ug/mL,1.09
COc1cccc(CCc2ccccc2OCC(CN(C)C)OC(=O)CCC(=O)O)c1.Cl (configuration not stated),IRF Lucia reporter activity,RAW-Dual [2]; [5],0.981
CCCCCCCCCCCCCCCCOc1nc2ccc(C)cc2c(=O)o1 (library stock concentration (final ~1000-fold dilution): 2 mM),IRF Lucia reporter activity,RAW-Dual [1]; [4],0.984
same,IRF Lucia reporter activity,RAW-Dual [1]; agonist: LPS (TLR4) 0.1 ug/mL,1.02
CCCCCCCCCCCCCCCCOc1nc2ccc(C)cc2c(=O)o1,IRF Lucia reporter activity,"RAW-Dual [2]; library stock concentration (final ~1000-fold dilution): 2 mM, cytotoxicity flag (confluency mask): not cytotoxic",1.26
CC(C)(Sc1ccncc1-c1ccc(C#N)c2ccccc12)C(=O)O (library stock concentration (final ~1000-fold dilution): 10 mM),IRF Lucia reporter activity,RAW-Dual [1]; [4],0.856
same,IRF Lucia reporter activity,RAW-Dual [1]; agonist: LPS (TLR4) 0.1 ug/mL,0.963
Cc1noc(C)c1-c1ccc(-c2cc(C(N)=O)c(NC(N)=O)s2)c(O[C@H]2CCNC2)c1 (library stock concentration (final ~1000-fold dilution): 10 mM),IRF Lucia reporter activity,RAW-Dual [1]; [4],0.958
same,IRF Lucia reporter activity,RAW-Dual [1]; agonist: LPS (TLR4) 0.1 ug/mL,0.315
CCCCCCCc1ccc(CCc2cccc(O)c2C(=O)O)cc1 (library stock concentration (final ~1000-fold dilution): 10 mM),IRF Lucia reporter activity,RAW-Dual [3]; [4],1.15
same,IRF Lucia reporter activity,RAW-Dual [3]; agonist: LPS (TLR4) 0.1 ug/mL,1.85
CCCCCCCc1ccc(CCc2cccc(O)c2C(=O)O)cc1,IRF Lucia reporter activity,RAW-Dual [2]; [6],0.935
